# Results: article PMC12136788
# This is one part of the list.
# T1: UNK ZnF1-6 (called full-length) (human, UniProt Q9C0B0 30-357)
# T1 sequence: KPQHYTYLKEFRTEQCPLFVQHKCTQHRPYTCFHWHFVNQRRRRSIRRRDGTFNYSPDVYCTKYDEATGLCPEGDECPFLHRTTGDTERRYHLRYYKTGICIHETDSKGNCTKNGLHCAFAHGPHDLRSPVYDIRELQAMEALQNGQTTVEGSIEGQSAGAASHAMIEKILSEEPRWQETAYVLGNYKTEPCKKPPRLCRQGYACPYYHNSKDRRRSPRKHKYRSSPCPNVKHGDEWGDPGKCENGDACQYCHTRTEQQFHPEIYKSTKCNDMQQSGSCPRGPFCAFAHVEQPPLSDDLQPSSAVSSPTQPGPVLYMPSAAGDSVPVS
# B1: chr12:14501823:14501924:+|3pUTR|ENSG00000171681|unk|FALSE|unique (ssRNA)
# RNA: GGGAGUUCUACAGUCCGACGAUCUUUUGUUGUUUGCUCUUUUGCUUUAAAUAUUCUCCAAAUUACCAUUUAUGCAACAUGGUUAGGGUUAAUACUGCAUGGUAUUCAUUUAUCUUGUUUCAUGAACUUUCCAGUACUGUACAACAACAGAGGAUUGAGCAUCA
# B2: chr5:149977868:149977977:+|CDS|ENSG00000155850|unk|FALSE|unique (ssRNA)
# RNA: GGGAGUUCUACAGUCCGACGAUCUAUUAAAAAGCUGCAGAAGAAUUGCCAGUGCAGUCCAGCCAAAGCCAAAAAUAUGAUUUUAGGUUUCCUUCCUGUUUUGCAGUGGCUCCCAAAAUACGACCUAAAGAAAAACAUUUUAGGCAACAGAGGAUUGAGCAUCA
# B3: chr11:35810521:35810622:+|3pUTR|ENSG00000166326|unk|FALSE|bound_elsewhere (ssRNA)
# RNA: GGGAGUUCUACAGUCCGACGAUCCCAGAAACCAUAAGACUCAGGCAGUUCUUGAUUCUGGAGGCCUGCCUGGUAAGAUAAGAUAGUAUAAUUUGGAACUGAGAACAUACCAGAAACAGCAGAACGAGGGCCAGAGCAGAAAAACAACAGAGGAUUGAGCAUCA
# B4: ENSG00000136451:be:win_1301|CDS|ENSG00000136451|bound_else_gene|NA|bound_elsewhere_windowed (ssRNA)
# RNA: GGGAGUUCUACAGUCCGACGAUCUUAACAUAACCAGCCCAAUGAACAUAGGGCAUCCUGUAACUAUAACCAGUCCAUUAUCCAUGACCUCUCCUUUAACACUCACUACCCCAGUCAACCUCCCCACCCCCGUCACUGCCCCAGCAACAGAGGAUUGAGCAUCA
# B5: ENSG00000070961:be:win_6201|3pUTR|ENSG00000070961|bound_else_gene|NA|bound_elsewhere_windowed (ssRNA)
# RNA: GGGAGUUCUACAGUCCGACGAUCAUCCCAAAUGUUUUUAAUCUUUGUAUAUUUUUUAAAAAUCCUUUUCUCCUCAUCAUUGCCUUUUUUGUGGUUGUAAAUAGACUUACUUGCACUUUGAAGAUGAGUUACUCCUUGUCAUCUCAACAGAGGAUUGAGCAUCA
# B6: chr19:15272971:15273072:-|CDS|ENSG00000141867|msi1|total|mutant (ssRNA)
# RNA: GGGAGUUCUACAGUCCGACGAUCGUCUGCGGAGAGCGGCCCUGGGACGAGAUUGAGAAAUCUGCCAGUAAUGGGGGAUGGACCCGAAACUUCCCAAAUGUCUACAACACAGGCCCAGGCCCAACCCCAGCCAGCCAACGCAGCCAACAGAGGAUUGAGCAUCA
# B7: chr8:17299120:17299221:-|3pUTR|ENSG00000003987|unk|total|mutant (ssRNA)
# RNA: GGGAGUUCUACAGUCCGACGAUCUCCUCAUUAUUUAAAAAUGCUAAACCUUGUAUCUCACUUUUUCUCUAACACUGAUUUAACCGCUAACGAGGCCGAAGCAACAUUCAUUCUCCUGGUCUUACAUAUGAAUUUAAGUAUCAGCAACAGAGGAUUGAGCAUCA
# B8: chr19:1230895:1231275:-|CDS|ENSG00000099625|control|control|control (ssRNA)
# RNA: GGGAGUUCUACAGUCCGACGAUCUCAGUAGAUGGAGGUGCUAGGGGUGGACCUGUGGGCCCUUGCCCCCCUUCGCCCCCCCCUAGGCGGCCCAGGGAGCGCUCUCCAGGCCCCGUGGACACGCGCUCGCCUGCCUCCAGCGGCCAACAGAGGAUUGAGCAUCA
# B9: chrX:153695679:153695780:+|3pUTR|ENSG00000130821|msi1|total|mutant (ssRNA)
# RNA: GGGAGUUCUACAGUCCGACGAUCGGCAGCAGAACCAAGGCAAAUAUUUCAGCUGGGCUAUACCCCUCUCCCCAUCCCUGUUACCGAAGCUCCGAGAGCCAGCCAGCAAUGGAACCUUCUGGUUCCUGCGCCAAUCGCCACCAGCAACAGAGGAUUGAGCAUCA
# B10: ENSG00000136451:be:win_1151|CDS|ENSG00000136451|bound_else_gene|NA|bound_elsewhere_windowed (ssRNA)
# RNA: GGGAGUUCUACAGUCCGACGAUCUGUGCCAAACCUCCACGGCUGCUACGACACCUGUGACUCUCACUACUCCAUUCAGUAUAACAUCCUCUGUGUCGUCUGGGACUAUGUCAAACCCAGUCACAGUGGCAGCUGCAAUGAGCACAACAGAGGAUUGAGCAUCA
# B11: chr4:112276399:112276500:-|3pUTR|ENSG00000145365|unk|FALSE|unique (ssRNA)
# RNA: GGGAGUUCUACAGUCCGACGAUCUUAUUCCCUGUGAUGCCCAGAGUAAUGGCCCAUCCAAAGAUGUCCAGAUGUCCAUGUGCUAGUCUCCAGAACUUGUAACUGUGUUGUUAUGUGGCAAAGGGGAAUGAAGGCUGCAGAUGGCAACAGAGGAUUGAGCAUCA
# B12: chr17:1004907:1005008:-|3pUTR|ENSG00000159842|msi1|total|mutant (ssRNA)
# RNA: GGGAGUUCUACAGUCCGACGAUCAAGAGGGGCCAGGCUUCCUGGAGGGUGACUGAUGUGGCCGAAGCAGGUGUCCAGGCAGGCCGGCUGCAGCCAGGAGCUCCCUGGCACCGCAGGACCUCGUGGUACUCUUGCCUCCGAUUUCAACAGAGGAUUGAGCAUCA
# B13: ENSG00000136451:be:win_401|CDS|ENSG00000136451|bound_else_gene|NA|bound_elsewhere_windowed (ssRNA)
# RNA: GGGAGUUCUACAGUCCGACGAUCGCAUCUUGUCAACAGUCACUACAUCUUCCUCGGGCACCAACCCCAGUAGCAGUGCCAGCACCACAGCUAUGCCAGUGACCCAGUCUGUCAAGAAACCCAGUAAGCCUGUCAAGAAGAACCCAACAGAGGAUUGAGCAUCA
# B14: chr1:205620050:205620151:-|CDS|ENSG00000158711|unk|FALSE|unique (ssRNA)
# RNA: GGGAGUUCUACAGUCCGACGAUCGCCAAUGGAACUUCCAGAGAAUUUGUCACUGGAGCCUAAAGACCAGGAUUCAGUCUUGCUAGAAAAGGACAAAGUAAAUAAUUCAUCAAGAUCCAAGAAACCCAAAGGGUUAGAACUGGCCAACAGAGGAUUGAGCAUCA
# Target: T1, UNK ZnF1-6 (called full-length)
# Experiment: nsRBNS (natural sequence RNA bind-n-seq); RBNS binding buffer (assumed for nsRBNS): 25 mM Tris pH 7.5, 150 mM KCl, 3 mM MgCl2, 0.01% Triton X-100, 500 ug/ml BSA, 20 U/ml SUPERase-In, 4 C; UNK is unkempt and MSI1 is Musashi-1; names of the RNAs are library labels; protein concentration not given here; high values mean tight binding
row,Binder,binding signal [enrichment R]
1,B1,0.457
2,B2,0.277
3,B3,1.77
4,B4,1.34
5,B5,0.982
6,B6,0.95
7,B7,0.98
8,B8,0.568
9,B9,0.787
10,B10,0.604
11,B11,0.581
12,B12,0.871
13,B13,0.705
14,B14,0.852
